From PubChem BioAssay AID1508624 (National Center for Advancing Translational Sciences (NCATS), 2021) come the findings set out here.

The campaign covered roughly 48,000 compounds. About 120 (0.25%) were called active. Another 4% or so got no clear call; they are omitted. The call rests on the fitted dose curve; in most records, active means well fitted activation curve with a large enough effect; inconclusive means small, poorly fitted or top-dose-only effect, or another doubt; inactive means no such curve, though single readings can be large or run the other way. The list shows a part of the results, in another mix than the full data. Where no call is shown, the source filed none.
Potency means the concentration at half of the fitted maximal effect.

The experiment in a line: Primary qHTS for Identification of Small Molecule Activators of Huntingtin-Antisense Promoter Activity. Further: nearly all actives have a fitted effect of over 55% in size. The note with it: HEK293 HTT-AS promoter firefly luciferase reporter, 24 h; activity change, positive = activation: at 57.5 µM (top of the series), percent change from vehicle, -100% = no light. Put shortly:
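HEK293 cells carrying firefly luciferase reporters were seeded at 2,500 per well in Opti-MEM and cultured for 24 h. They were then treated with compounds at up to 57.5 uM final for 24 h at 37 degrees C before Dual-Glo luminescence readout.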
In general terms: qHTS replaces the single test concentration by a dilution series.
Regarding `Cc1c(C)c2cc3c(c(C)c2oc1=O)OCN(CCc1ccccc1)C3`, the activity change, positive = activation was 10.6%. On the same count and under the same terms, to `COc1cccc(CNS(=O)(=O)c2ccc3c(c2)CC(C)N3C(=O)C2CCC2)c1` (stereo not drawn) belongs -48.7%; to `Cc1ccccc1C(=O)Nc1cc2c(cc1N1CCCCC1)n(C)c(=O)n2C`, -20.7%; to `COc1ccc2c(C)c(CCC(=O)NCc3ccc(C)cc3)c(=O)oc2c1`, -8.95%. On the same count and under the same terms, in the case of `COc1cc2c(Oc3ccc(-c4cnc(Nc5ccc(F)cc5)n(C)c4=O)cc3F)ccnc2cc1OCCCN1CCOCC1` it was inactive: -35.8%. On to `COC(=O)CN1C(=O)CSc2ccc(S(=O)(=O)Nc3cccc(C)c3)cc21`, for which the activity change, positive = activation is -24.4%. For the compound `Cn1cnc2c(=O)oc3ccc(S(=O)(=O)N4CCN(c5cccc(C(F)(F)F)c5)CC4)cc3c21`, the activity change, positive = activation is -8.91%. Take `Cc1ccc(-c2nc3c(c(SCC(=O)N(C)c4ccccc4)n2)Cc2c(CO)cnc(C)c2O3)cc1`: the “activity change, positive = activation” value was inactive: -27.9%. In the case of `O=C1C(=O)N(C2CCN(S(=O)(=O)c3ccccc3)CC2)CCN1Cc1ccccc1`, the activity change, positive = activation is 0.994%.

For `Cc1ccc(F)cc1NC(=O)CCc1c(C)nn(-c2ccc(N3CCCCC3)nn2)c1C`, the activity change, positive = activation was found to be 38.7%. For the compound `Cc1ccc(S(=O)(=O)Nc2ccc(-c3ccc(N4CCCCCC4)nn3)cc2)cc1C`, the activity change, positive = activation is -5.85%. On the same count and under the same terms, to `CC1CCN(c2ccc(-c3cccc(NS(=O)(=O)c4ccc(Cl)s4)c3)nn2)CC1` belongs 72.8%; to `CCOC(=O)c1c(-c2ccccc2)oc2ccc(NS(=O)(=O)c3ccccc3)cc12`, -14.6%; to `Cc1ccc(NC(=O)CCc2c(C)nn(-c3ccc(N4CCCCC4)nn3)c2C)cc1F`, 35.3%. Same read-out and setting: in the case of `COC(=O)c1c(C)oc2c1cc(NS(=O)(=O)c1c(C)cc(C)cc1C)c1ccccc12` it was -32.9%; in that of `COc1ccc(CCNC(=O)Cc2c(C)c3ccc(O)c(C)c3oc2=O)cc1OC`, -20.1%. For the compound `COc1cccc(-c2cc(C(=O)Nc3ccc(OC)cc3OC)no2)c1`, the activity change, positive = activation is -3.2%. Turning to `CCc1nn(CC(=O)NCC(C)c2ccccc2)c(=O)c2cc3c(OC)cccc3n12` (stereo not drawn), the activity change, positive = activation turned out to be 1.78%. For `Cc1ccc2nc(N3CCN(c4ccc(F)cc4)CC3)c3nnnn3c2c1`, the activity change, positive = activation was -3.87%. On the same count and under the same terms, in the case of `COc1cc(C)ccc1OCCCn1c(-c2ccc(Cl)cc2)nc2ccccc2c1=O` it was 4.95%; in that of `CCCCC(=O)Nc1cccc(-c2nc3ncccc3o2)c1C`, 32.5%; in that of `CCOC(=O)c1ccc(N2CCN(c3ccccc3F)CC2)c(NC(=O)Nc2ccc(Cl)c(Cl)c2)c1`, -20.2%.

Consider `Cc1oc2ccc(O)c(CN3CCN(Cc4ccccc4)CC3)c2c1C(=O)Nc1ccccc1`, for which the activity change, positive = activation is -19%. With `CC(C)OCCCNc1sc(S(=O)(=O)c2ccccc2)nc1S(=O)(=O)c1ccc(Cl)cc1`, the “activity change, positive = activation” value is inactive: -10.5%. As for `CCOc1ccc(NC(=O)CSc2ncn[nH]2)cc1`, the activity change, positive = activation is -0.033%. `Cc1cc(S(=O)(=O)Nc2cc3c(cc2NCc2ccccc2)n(C)c(=O)n3C)ccc1F`: the activity change, positive = activation worked out at 35%. Regarding `Cc1ccc2nc(N3CCN(c4cccc(C(F)(F)F)c4)CC3)c3nnnn3c2c1`, the activity change, positive = activation stood at 1.38%. As for `COc1cc2c(cc1OC)C(c1ccc(F)cc1)N(c1cccc(C#N)c1)C(=O)C2` (stereo not drawn), the activity change, positive = activation was -16.4%. Still for that read-out and setting: in the case of `Cc1nn(Cc2ccccc2Cl)c(C)c1NC(=O)c1cc(C(C)C)on1` it was -17.7%; in that of `COc1cccc(CNC(=O)C2CCCCN2S(=O)(=O)c2ccc(F)cc2)c1` (stereo not drawn), -5.27%. For the compound `COc1ccccc1C1Nc2ccccc2-n2c(-c3ccccc3)c3c(=O)n(C)c(=O)n(C)c3c21` (stereo not drawn), the activity change, positive = activation was -15.6%. In the case of `O=S(=O)(Nc1ccc(-c2ccc(N3CCCCCC3)nn2)cc1)c1cccc(C(F)(F)F)c1`, the activity change, positive = activation was 3.67%. As for `N#Cc1ccc(NC(=O)c2cc(-c3cccc(Cl)c3)on2)cc1`, the activity change, positive = activation came to 1.78%. Still for that read-out and setting: to `COc1cc2oc(=O)c(CC(=O)NCCc3ccccc3F)c(C)c2cc1OC` belongs -1.16%; to `CCc1nnc2c3ccccc3nc(Nc3ccc(F)c(Cl)c3)n12`, 0.37%; to `COc1ccc(CCNS(=O)(=O)c2ccc(F)c(C(=O)Nc3ccc(Cl)cc3)c2)cc1OC`, inactive: -42.2%.

With `Cc1cccc(C)c1NC(=O)CCS(=O)(=O)c1ccc2c(c1)CC(C)N2C(=O)C1CC1` (stereo not drawn), the activity change, positive = activation is -29.7%. Take `CCCOc1ccc(NC(=O)CC2C(=O)N(c3cccc(C)c3)C(=O)N2CCc2ccncc2)cc1` (stereo not drawn): the activity change, positive = activation is -13.2%. With `CCOc1ccc(NC(=O)c2ncn(-c3ccccc3)n2)cc1`, the Potency is active: 8.91 µM.

`COC(=O)c1cc2c(cc1NC(=O)c1c(C)nn(-c3ccc(C)cc3)c1-n1cccc1)OCO2`: the activity change, positive = activation was 3.46%.

Take `CCOC(=O)c1ccc(N2CCN(c3ccc(F)cc3)CC2)c(NC(=O)Nc2cccc(OC)c2)c1`: the activity change, positive = activation was -32.3%. On the same count and under the same terms, in the case of `C=C(C)Cn1c(SCC(=O)Nc2cc(C)ccc2C)nc2sc3c(c2c1=O)CCCC3` it was 3.56%. With `CCOC(=O)c1cccc(NC(=O)CCc2c(C)nn(-c3ccc(N4CCCC4)nn3)c2C)c1`, the activity change, positive = activation stood at 0.923%. `Cc1ccc(C)c(CSc2ccc3nnc(CCNS(=O)(=O)c4ccccc4)n3n2)c1`: the “activity change, positive = activation” value is inactive: -30%. On to `CSc1ccc(CCNC(=O)Cn2ncc3c(=O)oc4ccccc4c32)cc1`, for which the “activity change, positive = activation” value is inactive: -4.03%.

With `Cc1ccc(CN2C(=O)CN(C3CCC(C)CC3)C(=O)C2c2ccc(F)cc2)cc1` (stereo not drawn), the activity change, positive = activation is -15.3%. `Cc1ccc(C(=O)Nc2cccc(-c3nc4ccccc4o3)c2)c(Cl)c1`: the activity change, positive = activation is -0.318%. On to `COc1cc(NC(=O)CC2C(=O)N(c3cccc(C)c3)C(=O)N2Cc2ccc(F)cc2)cc(OC)c1` (stereo not drawn), for which the activity change, positive = activation is -20.4%. Turning to `CCc1ccc(NC(=O)C(CC)n2c(=O)c(C(F)(F)F)nc3ccccc32)cc1` (stereo not drawn), the “activity change, positive = activation” value was inactive: 5.33%. Same read-out and setting: in the case of `COc1ccc(-c2cc(C(=O)Nc3c(C)nn(Cc4ccc(C)cc4)c3C)no2)cc1OC` it was -3.93%; in that of `Cc1ccc(Nc2nn3c(=O)c4cc5c(cc4nc3s2)OCO5)cc1Cl`, inactive: -13.2%; in that of `Cc1cc(C)cc(S(=O)(=O)Nc2cccc(-c3ccc(N4CCOCC4)nn3)c2)c1`, -8.19%. `CCCc1c(C)c2ccc(O)c(CN3CCN(c4ccc(F)cc4)CC3)c2oc1=O`: the activity change, positive = activation is -11.5%.

In the case of `CCOC(=O)CN1C(=O)C(O)(CC(=O)c2cc(OC)ccc2OC)c2ccccc21` (stereo not drawn), the activity change, positive = activation is -10.6%.

As to `CC(=O)c1cc2c(cc1NC(=O)c1c(C)nn(-c3ccc(C)cc3)c1-n1cccc1)OCO2`, the activity change, positive = activation came out at 4.04%. On the same count and under the same terms, in the case of `CC1CCN(Cc2c(O)ccc3c(=O)c(-c4cccc(Cl)c4)c(C(F)(F)F)oc23)CC1` it was 4.2%; in that of `CCCCCCCCCCCCCCCC(=O)O[C@H]1[C@@H](O)[C@@H](O)[C@@H]([C@H](NC(=O)[C@@H]2C[C@@H](CCC)CN2C)[C@H](C)Cl)O[C@@H]1SC`, inactive: -11.4%.

Turning to `COc1ccccc1C(=O)Nc1cc2c(cc1N1CCOCC1)n(C)c(=O)n2C`, the activity change, positive = activation is 1.29%.
